The supplement of paper PMC3334620
Whole data set: some 33,000 sequences, median “E-score (-0.5 to 0.5)” near -0.053, cut for the highest 2% near 0.37. This is one part of the list.

Target: Hap1 (UniProt P0CE41)
Experiment: PBM E-score (8-mer binding enrichment) (E-score (-0.5 to 0.5)); higher = stronger / more preferred TF binding; most listed sequences are background and not binding sites
Conditions: protein concentration: 200 nM; construct: GST-DNA-binding domain
Procedure, shortened: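 Bound GST-tagged yeast transcription factors, applied at about 100-200 nM to double-stranded universal all-10-mer Agilent arrays, were detected with fluorescent anti-GST. Scans were normalised with masliner. A modified Wilcoxon-Mann-Whitney statistic, the E-score, was assigned to each ungapped eight-base word pooled with its reverse complement by the Universal PBM Analysis Suite.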

Sequence of UniProt P0CE41 (P0CE41 whole entry): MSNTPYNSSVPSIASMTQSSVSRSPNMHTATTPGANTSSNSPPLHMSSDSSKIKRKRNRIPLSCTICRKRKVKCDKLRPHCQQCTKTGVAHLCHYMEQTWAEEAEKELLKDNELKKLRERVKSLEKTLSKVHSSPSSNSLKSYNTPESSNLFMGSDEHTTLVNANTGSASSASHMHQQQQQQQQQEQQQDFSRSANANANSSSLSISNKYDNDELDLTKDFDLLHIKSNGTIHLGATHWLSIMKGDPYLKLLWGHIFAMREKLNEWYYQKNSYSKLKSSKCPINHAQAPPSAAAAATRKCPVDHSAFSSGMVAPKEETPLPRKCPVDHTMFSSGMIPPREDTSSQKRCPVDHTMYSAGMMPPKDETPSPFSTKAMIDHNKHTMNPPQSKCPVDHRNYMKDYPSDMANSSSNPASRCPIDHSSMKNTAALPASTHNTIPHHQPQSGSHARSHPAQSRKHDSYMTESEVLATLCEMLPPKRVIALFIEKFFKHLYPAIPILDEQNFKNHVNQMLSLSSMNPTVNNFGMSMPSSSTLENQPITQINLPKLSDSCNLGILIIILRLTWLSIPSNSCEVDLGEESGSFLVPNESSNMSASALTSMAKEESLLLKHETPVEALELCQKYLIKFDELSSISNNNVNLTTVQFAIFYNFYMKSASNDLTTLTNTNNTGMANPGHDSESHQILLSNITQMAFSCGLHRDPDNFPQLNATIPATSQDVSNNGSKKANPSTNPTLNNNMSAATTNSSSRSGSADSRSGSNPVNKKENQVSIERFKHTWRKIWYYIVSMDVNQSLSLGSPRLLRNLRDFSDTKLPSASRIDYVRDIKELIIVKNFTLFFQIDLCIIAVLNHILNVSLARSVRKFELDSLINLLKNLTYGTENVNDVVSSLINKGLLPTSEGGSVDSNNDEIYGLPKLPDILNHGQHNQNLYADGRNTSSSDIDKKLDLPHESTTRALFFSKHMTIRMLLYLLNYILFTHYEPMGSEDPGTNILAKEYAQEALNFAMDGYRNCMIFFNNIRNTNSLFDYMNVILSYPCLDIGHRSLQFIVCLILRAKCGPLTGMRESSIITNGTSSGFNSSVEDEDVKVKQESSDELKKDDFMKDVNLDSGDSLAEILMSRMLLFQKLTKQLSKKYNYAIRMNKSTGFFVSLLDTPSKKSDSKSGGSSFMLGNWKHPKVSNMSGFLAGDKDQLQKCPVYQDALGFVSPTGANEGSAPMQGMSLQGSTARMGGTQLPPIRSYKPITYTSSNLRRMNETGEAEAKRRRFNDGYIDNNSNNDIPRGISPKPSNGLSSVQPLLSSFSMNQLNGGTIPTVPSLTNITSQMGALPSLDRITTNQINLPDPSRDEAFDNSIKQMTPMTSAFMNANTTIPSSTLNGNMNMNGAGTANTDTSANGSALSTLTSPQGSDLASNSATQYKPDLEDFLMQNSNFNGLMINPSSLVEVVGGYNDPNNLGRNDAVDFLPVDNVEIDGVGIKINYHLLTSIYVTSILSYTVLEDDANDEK

Sequence	PBM E-score
CGCCGCTA	0.332
AGTGCCCA	-0.0761
CCGAGACG	0.339
CGCAAGAA	0.16
AACTGCCG	0.182
ATCGTATC	-0.0262
GCAAGAAA	0.0211
AATACCGG	0.451
CGACTTTC	0.188
GCACAGTA	-0.177
CATGGGAC	-0.118
GCAGGGCC	-0.0879
AACGGTCA	0.246
CTAATATC	0.0996
GCCAGATA	0.0512
ACCATCAA	-0.222
CCGTCAGC	0.103
CTCACTAA	-0.257
AGCGCATA	-0.0711
AACTGCCA	-0.186
CGCTCAGA	-0.109
CCTTCGGA	0.364
AGCATACG	-0.0215
ATCCCACG	-0.101
CTTAGGTC	0.057

Sequence	PBM E-score
CCTATAGC	-0.124
ACGTCATA	-0.177
CCTCGCAG	-0.176
ACGCCAAT	-0.0288
ATTGTGAG	-0.0587
AATAGACG	-0.0186
CAGTCCGA	0.366
CCGTGGAG	0.193
CCTGCCCA	-0.221
CCCTCATC	-0.175
CTGTAAAG	-0.157
CATGCGAA	-0.00622
TAGATACA	-0.281
AAGGCGTC	-0.133
AACCACAG	-0.201
GTCGAGGA	-0.275
ACCATGCC	0.0287
CAGGCCGG	0.166
ACGAAATA	-0.0514
GCCGTACC	0.17
ATCGTCAG	-0.2
CTACTGCA	-0.404
ATCACTGA	-0.281
GAAATATA	0.197
CAAGAGAG	-0.166

Sequence	PBM E-score
CAGTCAGG	-0.35
CGCCTGTC	-0.0508
CACGCCGA	0.169
CCGACACG	0.222
ATGGGTGA	-0.0877
CTCTCTAC	-0.191
GGGCACCA	-0.0557
CGGTCGCA	0.186
GTTCCACA	-0.108
GGAGCCAC	-0.129
ACTATTAT	0.026
ACTGGTTC	0.0977
CCGCTGCG	0.078
ATGGTCTC	0.0286
ATCGAGCA	0.0429
CGCAGGCA	0.0216
ATACGTAA	-0.147
CCAACCAG	-0.189
CAAATGGG	-0.279
CTCTCCCC	0.057
CGTCACGA	-0.0775
CGGCTACA	0.118
GCTTTTCA	0.0791
AGGCACTC	-0.149
AATAGATA	-0.00886

Sequence	PBM E-score
GTCACGTA	-0.269
CTCGCGAG	-0.0254
AATGTTGT	-0.288
CGGTCCCA	0.206
CCGGCGAA	0.339
AATCCGGG	0.409
ACCCTGTC	-0.17
AGTAAGTA	-0.032
GGCATGAA	0.0616
CCGCGTCC	0.141
AATGTAAT	0.0955
AGAACGCC	0.132
GATTAACC	0.0378
AATGCAAA	-0.0137
GGCATCTA	-0.0235
GGACGTCA	0.0606
ATTCTTAG	-0.0927
ACAAACTA	-0.122
ACACCCTG	-0.163
AATTCTCG	0.046
CCCCCGTC	0.0755
AGCTCGAT	-0.133
GATCTGGA	-0.135
GAAGCTAA	-0.0495
GCTACTCC	0.0961

Sequence	PBM E-score
CTGTAAAA	-0.108
ACAGTATA	-0.0777
TATACCAA	0.00042
AGTTCTCA	-0.121
GTATTGAA	-0.108
CGGCGAAG	0.243
AAAAAATA	-0.0105
TCTGGCAA	-0.0495
GCTATCAA	-0.0105
AGGTTATG	-0.0174
CGCGCGTA	0.233
AACAAATC	-0.00416
TGTCTCAA	-0.209
GTCTACCA	-0.208
CTACGGCC	0.218
CGTTCCCC	0.0527
TGAATGCA	-0.0987
CGGGGCAC	0.0474
CCGGAATC	0.416
ACGATTTA	0.0229
GGAATCCA	0.101
GGTAACGA	-0.113
ACGTATGA	-0.0697
AGACAGTA	-0.134
AGGGGTAG	-0.109

Sequence	PBM E-score
GATTTTCA	0.0147
GAAAGCTA	0.115
AACGTCTG	-0.113
AATATCAT	-0.0352
AATCCTAA	-0.112
TCCACAAA	-0.0163
ACTCAACT	0.101
AAGCCACT	-0.0869
ACCCCTCC	-0.187
ACGAGACT	-0.17
AAGGAGAT	0.157
CTAGCAAA	-0.0109
ACCCTACA	-0.133
CCGCAGGC	0.0553
CATTCGAC	-0.0448
AAGCAGAA	-0.00453
CCTAGTGC	-0.106
AATTGGGC	-0.226
CGCCCCCA	-0.163
GCTACTAA	-0.0899
ATAGCATA	0.00421
GCCGGGGA	0.392
GGAGCCAA	0.0429
AACGCGGA	0.267
ATTAGGGG	0.123

Sequence	PBM E-score
ATGGTACA	-0.213
AGGGGTTG	-0.242
TGCGACAA	-0.0385
GAAGAAGC	-0.0752
ACCCGAAC	0.297
AGGAAGGG	-0.15
CTCTAGCA	-0.342
CGGCCGTA	0.417
AATCTTGG	-0.209
ACTGTAGC	-0.222
AAAAAAAA	-0.0113
CCGCCAGG	-0.118
TCCTCCCA	-0.0239
CAGTGAGC	-0.133
CACCCACA	-0.134
GATTATCC	0.125
CCACGGGA	0.0887
AGGTACAC	-0.108
TAGACCCA	-0.194
CGTTGAAA	-0.0519
ACGAGATG	-0.051
ATGCGATG	0.0271
